Reference: the supplement of paper PMC12645437, “Orthogonal IMiD-Degron Pairs Induce Selective Protein Degradation in Cells” (ACS Chemical Biology, 2025)
The list shows a part of the results.

Biological target: no compound (DMSO)
Test: log2 fold change of degron read counts, EGFP-low vs EGFP+ sorted cells; higher = lower degron-EGFP level without compound (poor expression or instability)
Details: compound: DMSO control; 18 h
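Also: jurkat cells carrying a lentiviral library of mutant zinc finger degrons fused to EGFP plus mCherry, mCherry+ cells FACS sorted, degron abundance counted by next-generation sequencing.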

Sequence	log2 fold change of degron read counts
FVCNQCGHTFTQKGNLLRHIKL	-0.519
FGCSVCGHHFTQKGNLLRHIKL	0.918
FACDVCGACFTQKGNLLRHIKL	-1.16
FFCPICGRNFTQKGNLLRHIKL	-0.702
LWCEICGFPCTQKGNLLRHIKL	1.52
FMCPQCGAQFTQKGNLLRHIKL	-0.568
FQCPQCGADFTQKGNLLRHIKL	-1.38
FECNICGALFTQKGNLLRHIKL	-0.375
FICPQCGAIFTQKGNLLRHIKL	0.423
LHCEICGFECTQKGNLLRHIKL	-1.59
FMCNQCGRFFTQKGNLLRHIKL	0.773
FHCNQCGANFTQKGNLLRHIKL	-0.361
FLCEVCGAVFTQKGNLLRHIKL	-0.899
FYCDICGAAFTQKGNLLRHIKL	-0.904
FCCNQCGAPFTQKGNLLRHIKL	-0.275
FYCPICGHSFTQKGNLLRHIKL	-0.855
FACEVCGAQFTQKGNLLRHIKL	-2.28
FWCEICGRFFTQKGNLLRHIKL	1.28
FNCEICGADFTQKGNLLRHIKL	-1.57
FRCNQCGAGFTQKGNLLRHIKL	-1.17
LWCNQCGFVCTQKGNLLRHIKL	2
FTCNQCGRNFTQKGNLLRHIKL	-0.0796
FICEQCGAEFTQKGNLLRHIKL	-2.11
FSCEVCGAKFTQKGNLLRHIKL	-2.76
FWCNQCGRQFTQKGNLLRHIKL	0.786

Sequence	log2 fold change of degron read counts
FYCNICGAWFTQKGNLLRHIKL	1.15
LNCNQCGFRCTQKGNLLRHIKL	1.08
FICNICGASFTQKGNLLRHIKL	-1.66
FMCDVCGAVFTQKGNLLRHIKL	-0.859
FHCPICGACFTQKGNLLRHIKL	0.136
FFCSVCGHTFTQKGNLLRHIKL	-0.0991
FHCDICGAIFTQKGNLLRHIKL	-0.887
FYCEICGRVFTQKGNLLRHIKL	-0.559
LICEICGFYCTQKGNLLRHIKL	1.29
FFCSVCGHCFTQKGNLLRHIKL	0.86
FDCPQCGAPFTQKGNLLRHIKL	-1.88
FVCNVCGAEFTQKGNLLRHIKL	-2.02
FRCPICGANFTQKGNLLRHIKL	-0.424
FYCEVCGAPFTQKGNLLRHIKL	-0.813
FYCNVCGADFTQKGNLLRHIKL	-0.567
FACNQCGHCFTQKGNLLRHIKL	-0.0737
LHCPICGFSCTQKGNLLRHIKL	0.696
FHCEICGHTFTQKGNLLRHIKL	-1.38
LVCNQCGFWCTQKGNLLRHIKL	1.14
FMCEQCGAWFTQKGNLLRHIKL	-0.271
FFCPQCGAAFTQKGNLLRHIKL	-0.523
FCCNQCGRYFTQKGNLLRHIKL	0.666
FWCNQCGAKFTQKGNLLRHIKL	0.456
FWCDQCGARFTQKGNLLRHIKL	-0.724
FHCSVCGHTFTQKGNLLRHIKL	-0.391
